Measured values as given in PubChem BioAssay AID686978 (National Center for Advancing Translational Sciences (NCATS), 2013).
Where “and” joins values, the source holds several entries; their conditions need not be identical. Identical values can stand only once. Hit rate of the full screen: of about 420,000 compounds, about 64,000 (15%) were called active. This list was built around the results that the source calls inconclusive (neither active nor inactive); the mix of calls is not that of the screen. Calls come from the whole dose curve; as a rule, active = well fitted inhibition curve with a large enough effect; inconclusive = small, poorly fitted or top-dose-only effect; inactive = flat fitted curve, though single readings scatter. Potencies of inconclusive entries are left out as doubtful fits.
% is set by controls: 0 for no effect and ±100 for the full control effect; potency is the fitted concentration of half-maximal effect; tags give direction and shape of the fitted curve.

Experiment: qHTS for Inhibitors of human tyrosyl-DNA phosphodiesterase 1 (TDP1): qHTS in cells in absence of CPT; note: nearly all actives have a fitted effect of over 55% in size
Conditions: DT40 Tdp1-/- hTDP1 cells, no CPT, ATP luminescence, 48 h; activity change, negative = growth inhibition: at 46.2 µM (top of the series)
Method in brief: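 Chicken DT40 Tdp1-/- cells stably complemented with human TDP1 were seeded at 400 cells/well with DMSO in place of 20 nM camptothecin. After compound pinning, cells grew at least 48 hr at 37 °C; viability read by CellTiter-Glo luminescence.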
With COc1ccc2c(C)cc3nncn3c2c1 the “activity change, negative = growth inhibition” value was inactive: 6.96%.
For COc1cc(N2N=C(c3ccccc3)CC2c2ccccc2)c(C=O)cc1C=O (stereo not given), the Potency was active: 18.4 µM.
For COc1cccc(Cl)c1NC(=O)N1CCN(c2ccnc3cc(Cl)ccc23)CC1, the Potency was active: 23.1 µM.
With C#CCN(C1CCCC1)S(=O)(=O)C=C the Potency was inconclusive [inhibitor, partial curve].
With CC1CCCN(C(=O)CNC(=O)c2sc3ccccc3c2Cl)C1 (stereo not given) the Potency was inconclusive [inhibitor, single point].
In the case of Cc1cccc(Cn2c(=O)n(-c3ccccc3C)c(=O)c3c2c2cc(C)ccc2n3C)c1, the Potency is reported as active: 20.6 µM.
In the case of COC(=O)c1cc(-c2c(-c3cc(OC)c(OC)c(OC)c3)noc2C)cc([N+](=O)[O-])c1, the Potency is reported as active: 8.91 µM and active: 16.4 µM.
For COc1ccc(S(=O)(=O)NCCc2csc3nc(-c4ccccc4)nn23)cc1OC, the Potency was inconclusive [inhibitor, single point].
For Cc1ccc(CN2CCN(C(=O)CCC(=O)Nc3nnc(C(C)C)s3)CC2)c(C)c1, the Potency was inconclusive [inhibitor, single point].
For O=C(Nc1cccc(-c2cn3cccnc3n2)c1)c1ccc2c(c1)OCO2, the Potency was inconclusive [inhibitor, single point].
With Fc1cccc(CSc2ccc(-c3cccs3)nn2)c1 the Potency was inconclusive [inhibitor, single point].
With CCOc1ccc(OCc2ccc(C(=O)N(C)c3ccccc3)o2)cc1 the Potency was active: 14.6 µM.
With CC(C)C[C@H](NC(=O)c1[nH]cnc1C(=O)Nc1ccc(CNC(=O)OC(C)(C)C)cc1)C(=O)OCc1ccccc1 the Potency was active: 14.6 µM.
For COC(=O)[C@@]12CCCN1[C@H](c1ccc(-c3ccc(OC)cc3)c(OC)c1)[C@@H]1C(=O)N(C)C(=O)[C@@H]12, the Potency was active: 4.11 µM.
For CCN1C(=O)C(O)(c2c[nH]c3ccccc23)c2cc(Br)ccc21 (stereo not given), the Potency was inconclusive [inhibitor, single point].
With CCOc1ccc(CN(C)C(C)C(=O)NCc2ccccc2)cc1 (stereo not given) the Potency was inconclusive [inhibitor, partial curve].
With CC(C)C[C@@H](CN=[N+]=[N-])N1CCN(CC(C)C)CCC1=O the Potency was inconclusive [inhibitor, single point].
With CC(=O)c1ccc(NC(=O)CSc2nnc(Cc3cccn3C)n2-c2ccc(F)cc2)cc1 the Potency was inconclusive [inhibitor, partial curve].
In the case of O=S(=O)(/N=C(/Nc1cc(N2CCOCC2)ncn1)c1ccccc1)c1ccccc1, the “activity change, negative = growth inhibition” value is reported as inactive: -17.5%.
In the case of COc1ccc(-c2csc3ncnc(N4CCN(S(=O)(=O)c5ccc(Cl)s5)CC4)c23)cc1, the Potency is reported as active: 29.1 µM.
In the case of CC(=O)Nc1nc(-c2ccc3c(c2)OCO3)cs1, the “activity change, negative = growth inhibition” value is reported as inactive: -14.2%.
With Cn1c(=O)c2c(nc(C3CC4C5CCC(C5)C4C3)n2C)n(C)c1=O (stereo not given) the Potency was active: 16.4 µM.
For COc1ccccc1C(=O)N(c1ccc(C)cc1)S(=O)(=O)c1ccc(Cl)cc1, the Potency was inconclusive [inhibitor, single point].
With CC1(C)Cc2c(c(N3CCOCC3)nc3sc(-c4ccc(C(=O)O)o4)c(N)c23)CO1 the Potency was inconclusive [inhibitor, single point].
In the case of Cc1cc2nc(-c3ccc(=O)[nH]c3)n(Cc3ccccc3)c2cc1C, the Potency is reported as inconclusive [inhibitor, single point].
For COc1cc2c(cc1OC)C(=O)N(C)CC2, the Potency was “inactive”.
For Cn1nnnc1SCC(=O)N1N=C(c2ccc(Cl)cc2)CC1c1ccco1 (stereo not given), the Potency was active: 16.4 µM.
For CCOC(=O)N1CCC(n2c(SCC(=O)Nc3ccccc3OC)nc3ccccc3c2=O)CC1, the Potency was inconclusive [inhibitor, single point].
For COc1ccc(Cn2c(C3CC3)nc3ccc(NC(=O)c4cccnc4)cc3c2=O)cc1, the Potency was active: 10.3 µM.
For Cc1cc(C)cc(NC(=O)c2ccc(CNc3c(N4CCCC4)c(=O)c3=O)cc2)c1, the “activity change, negative = growth inhibition” value was inactive: -22.1%.
In the case of Cc1csc2nc(COC(=O)c3ccc(NC(=O)C(C)Oc4ccccc4)cc3)cc(=O)n12 (stereo not given), the Potency is reported as inconclusive [inhibitor, single point].
For CCCCNC(=S)N(C)/N=C/c1ccccc1C(=O)O, the Potency was inconclusive [inhibitor, single point].
For Cc1onc(-c2c(Cl)cccc2Cl)c1C(=O)N1CCN(c2ccccc2F)CC1, the Potency was inconclusive [inhibitor, single point].
For CC(C)Cc1ccc(C(C)C(=O)O)cc1 (stereo not given), the Potency was “inactive”.
For O=C(CC1c2ccccc2Oc2ccccc21)NCc1ccco1, the Potency was inconclusive [inhibitor, single point].
For Cc1cccc(C)c1NC(=O)COc1ccc2c(C)c(Cc3ccccc3)c(=O)oc2c1, the Potency was active: 11.6 µM.
With COc1ccc(S(=O)(=O)Nc2ccc3c(c2)C(=O)N([C@H](C)CO)C[C@H](C)[C@@H](CN(C)C(=O)Nc2c(C)noc2C)O3)cc1 the “activity change, negative = growth inhibition” value was inactive: 2.55%.
In the case of Nc1cc2c3ccccc3ccc2c2ccccc12, the Potency is reported as inconclusive [inhibitor, single point].
With COc1ccc(S(=O)(=O)N2CCOCC2)cc1C(=O)Nc1ccc(N2CCCCCC2)cc1 the Potency was active: 18.4 µM.
With O=C(c1nc2ncccn2n1)N1CCc2ccccc2C1 the Potency was inconclusive [inhibitor, partial curve, poor fit].
In the case of CC(CCC(=O)O)C1CCC2C3CC[C@H]4CC(O)CC[C@@]4(C)C3C=C[C@]12C (stereo not given in full), the Potency is reported as inconclusive [inhibitor, partial curve].
With COc1ccc(-c2cc(C(=O)N3CCCCCC3)c3ccccc3n2)cc1 the Potency was inconclusive [inhibitor, single point].
In the case of O=C(NCC1CC1)C1Cc2c(-c3ccc(Cl)cc3)ccnc2O1 (stereo not given), the Potency is reported as inconclusive [inhibitor, single point].
In the case of Cc1ccc(C)c(Cn2cnc3c(cnn3C(C)(C)C)c2=O)c1, the Potency is reported as active: 18.4 µM.
With C[C@@H]1CN([C@@H](C)CO)S(=O)(=O)c2ccc(Br)cc2O[C@H]1CN(C)C(=O)Nc1ccc(C(F)(F)F)cc1 the Potency was inconclusive [inhibitor, single point].
